Data: the RNAGym collection of RNA variant scans (doi:10.1101/gad.245936.114)
This sample is rich in variants without activity.

B1: tRNA (parent)
chain: CUCUCGGUAGCCAAGUUGGUUUAAGGCGCAAGACUUUAAUUUAUCACUACGAAAUCUUGAGAUCGGGCGUUCGACUCGCCCCCGGGAGAUUUUUUCCUCGAGCAA

Variants of: B1
Experiment: nonsense suppression (GFP-seq) (ratio to wild type); higher = more function; SUP4oc tRNA, yeast GFP reporter sort-seq
In short: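 Yeast were grown in raffinose/galactose medium with 80 mg/L adenine, each strain bearing a genome-integrated ochre-suppressor tRNA variant from a ~3% random-mutation library, a galactose-driven GFP ochre reporter, and RFP. After sorting into GFP/RFP bins, every bin was sequenced on an Illumina platform at phred ≥30. The GFPSEQ value, a measure of nonsense suppression, is the weighted bin median GFP/RFP relative to the unmutated parent tRNA, using each variant's estimated cell share per bin as the weight. Only variants with ≥100 reads and ≥30 cells were included.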

Row | Variant | nonsense suppression
1 | A13G U21G | 0.026
2 | A13G U21C | 0.211
3 | A13G C83G | ≤ 0.026
4 | A13G U16G U20A A24C C75U C81G | ≤ 0.026
5 | A13G C27A C29G A33U U76C G86U | ≤ 0.026
6 | A13U A54C G86U | ≤ 0.026
7 | A13G G86C A87U | ≤ 0.026
8 | A14G G32U C75G C82G | ≤ 0.026
9 | A13G U17C A23C C75A G88A | ≤ 0.026
10 | A13G G32U | ≤ 0.026
11 | A14G A89C | ≤ 0.026
12 | A13U C72G U76A | ≤ 0.026
13 | A13U G69C | 0.0304
14 | A13G U16G C56U | ≤ 0.026
15 | A14C U70A G73C | ≤ 0.026
16 | A13G U17C A30U | ≤ 0.026
17 | A14C C56A C81G | ≤ 0.026
18 | A13U A14G C75A U76G G88C | ≤ 0.026
19 | A14C G28U U35A U55G | ≤ 0.026
20 | A14G A24C A31G C56G | ≤ 0.026
21 | A13C U55G C68U | ≤ 0.026
22 | A13U A33G | 0.194
23 | A14G A33G G69C | ≤ 0.026
24 | A14G A62G G67U | ≤ 0.026

Row | Variant | nonsense suppression
25 | A13U A14U C27G A60C | ≤ 0.026
26 | A14G A31C C72G | ≤ 0.026
27 | A13G G25A C34G G59U | ≤ 0.026
28 | A13U C34A C77A | ≤ 0.026
29 | A13U A30G U71G A87C | ≤ 0.026
30 | A13G A54C U63C | ≤ 0.026
31 | A14G C29A A60C | ≤ 0.026
32 | A14G G67C U71G C72U | ≤ 0.026
33 | A14C G32U G85U | ≤ 0.026
34 | A14G A30C U63G | ≤ 0.026
35 | A13U C68U C79U | ≤ 0.026
36 | A13G A33U C77A | ≤ 0.026
37 | A14G C80U | ≤ 0.026
38 | A13G A54C C64U G85C | ≤ 0.026
39 | A13G A24U | 0.0411
40 | A14G G18A U21C A30G A33G C79A C82A A89U | ≤ 0.026
41 | A14G C77G | ≤ 0.026
42 | A14G C64A C68G G78A | ≤ 0.026
43 | A13U G15U C75U | ≤ 0.026
44 | A14U A33U C34G G59C | ≤ 0.026
45 | A14C G28U G67C G88C | ≤ 0.026
46 | A14G A24C G32A A74G | ≤ 0.026
47 | A14U A24G A31U | ≤ 0.026
48 | A13U A30G A31G C64G | ≤ 0.026

Row | Variant | nonsense suppression
49 | A14C C81A G85A | ≤ 0.026
50 | A14G G69U | ≤ 0.026
51 | A14G A23G A74C | ≤ 0.026
52 | A13G C27U A33C A89G | ≤ 0.026
53 | A14G U21G | ≤ 0.026
54 | A14C A23U A89U | ≤ 0.026
55 | A14G G61U U70C | ≤ 0.026
56 | A14C G32C | ≤ 0.026
57 | A14C U35A | ≤ 0.026
58 | A14C U35G | ≤ 0.026
59 | A14C U17C C75U G84C | ≤ 0.026
60 | A13G C64G G84A A87G | ≤ 0.026
61 | A14C C27U | ≤ 0.026
62 | A13C U58G G66A A74U G86C | ≤ 0.026
63 | A13G A62U C77U G86A | ≤ 0.026
64 | A13G A31G C72A | ≤ 0.026
65 | A13U U20C C81G G84A | ≤ 0.026
66 | A13U G65C C82A | ≤ 0.026
67 | A14G A23G C34U A54C C56U | ≤ 0.026
68 | A14G G69U A74C | ≤ 0.026
69 | A13G G84A | ≤ 0.026
70 | A13U U21C U35C C68U G84U | ≤ 0.026
71 | A13G C34U | ≤ 0.026
72 | A14G G26U U57C | ≤ 0.026

Row | Variant | nonsense suppression
73 | A14U A33C G67C A87C | ≤ 0.026
74 | A14G G86U | ≤ 0.026
75 | A14G A54G | ≤ 0.026
76 | A14G A54U | ≤ 0.026
77 | A13U C27A G73A | ≤ 0.026
78 | A13G C77A | ≤ 0.026
79 | A13G G67C | ≤ 0.026
80 | A14C G18C | ≤ 0.026
81 | A13U A14C G32U G61C | ≤ 0.026
82 | A13G G15U U22G C72U | ≤ 0.026
83 | A14G G26C A31U | ≤ 0.026
84 | A14C A62C G66C G73U | ≤ 0.026
85 | A14C C68G | ≤ 0.026
86 | A13G A33U U57A | ≤ 0.026
87 | A14C G15C | ≤ 0.026
88 | A13U U70C U71G A74U | ≤ 0.026
89 | A13G G86A | ≤ 0.026
90 | A14C A24U | ≤ 0.026
91 | A13U G61U G66C U70A | ≤ 0.026
92 | A13U U22G A23C | ≤ 0.026
93 | A13G U58G | ≤ 0.026
94 | A13U G28C | 0.227
95 | A13U G73U A87G | ≤ 0.026
96 | A13G C56U C82G | ≤ 0.026

Row | Variant | nonsense suppression
97 | A13G G61A G67C C82G | ≤ 0.026
98 | A14G G78A | 0.0272
99 | A14G G78C | ≤ 0.026
100 | A13G A74C C77U | ≤ 0.026
101 | A13U G65C | ≤ 0.026
102 | A13U G65A | ≤ 0.026
103 | A13U C27A | ≤ 0.026
104 | A13G C29A G86A | ≤ 0.026
105 | A14G G85A G86C | ≤ 0.026
106 | A14G G18U | ≤ 0.026
107 | A14G G18A | ≤ 0.026
108 | A14G G15A C56U G61U G69U U71G | ≤ 0.026
109 | A14G G25U | ≤ 0.026
110 | A13U G61U | 0.447
111 | A13G U21G C83A | ≤ 0.026
112 | A13U G65U G84U | ≤ 0.026
113 | A14G A31U C83G G85U | ≤ 0.026
114 | A14G U35C G73C | ≤ 0.026
115 | A13U G15A C27G | ≤ 0.026
116 | A14C G67C C75G | ≤ 0.026
117 | A13G C29G | ≤ 0.026
118 | A14G G61U G67U A87C | ≤ 0.026
119 | A14G U16C A24U A33G U71C G84U | ≤ 0.026
120 | A13U U22G | 1.06

Row | Variant | nonsense suppression
121 | A14G U17A G59U | ≤ 0.026
122 | A13G U16G | 0.207
123 | A14C A23U G32A U35C G66A G69A U70C | ≤ 0.026
124 | A13G A62G | ≤ 0.026
125 | A13C U70G | ≤ 0.026
126 | A14G C64A | ≤ 0.026
127 | A13U C34G G69C | ≤ 0.026
128 | A13U U76C | 0.836
129 | A14C G65C C80G A87C | ≤ 0.026
130 | A14G A30C G61C A74G | ≤ 0.026
131 | A13U C34A | ≤ 0.026
132 | A13G U20A U22C | ≤ 0.026
133 | A13G U35G | ≤ 0.026
134 | A13G U35C | ≤ 0.026
135 | A13U A74U | 0.051
136 | A14G A30U U58G | ≤ 0.026
137 | A13G C29A A31G A62U | ≤ 0.026
138 | A13G A14G A60G U70G | ≤ 0.026
139 | A14G G19A A31U G66C A74C G78U | ≤ 0.026
140 | A13U C29U | 0.751
141 | A13U G15U C64A G86C | ≤ 0.026
142 | A13G G15C U20A A33G | ≤ 0.026
143 | A14G G19U A31U C64U | ≤ 0.026
144 | A13G G66A A89U | ≤ 0.026

Row | Variant | nonsense suppression
145 | A13G A23G U58A A74G | ≤ 0.026
146 | A13U U21G | 0.763
147 | A14G C64A G65A | ≤ 0.026
148 | A13G U17G U71G | ≤ 0.026
149 | A14C A31G C81A | ≤ 0.026
150 | A14G C29G G73A | ≤ 0.026
151 | A14C U71A | ≤ 0.026
152 | A14C U71G | ≤ 0.026
153 | A14G G73C | ≤ 0.026
154 | A14G G73A | ≤ 0.026
155 | A13U U22A C68G | ≤ 0.026
156 | A14G C27G A60C G88A | ≤ 0.026
157 | A14G G19U G86C | ≤ 0.026
158 | A14G G26C G61A G65A G67C U70G A89G | ≤ 0.026
159 | A13U C29U C81U | 0.0757
160 | A14G G19U A23G A30G C75U C82U | ≤ 0.026
161 | A13U U22C G61C G84C | ≤ 0.026
162 | A13C U57A C72A C77G | ≤ 0.026
163 | A13U G18U | ≤ 0.026
164 | A14C U57A C72A | ≤ 0.026
165 | A14G U35A | ≤ 0.026
166 | A13G G19A G65A | ≤ 0.026
167 | A13G A30U A31G A33U | ≤ 0.026
